# Laboratory results as given in PubChem BioAssay AID2100 (National Center for Advancing Translational Sciences (NCATS), 2009).
# The campaign covered roughly 300,000 compounds. About 1,200 (0.4%) were called active. Inconclusive means that the source gave no clear call. Such entries were picked first, then a sample of the others. The call rests on the fitted dose curve; in most records, active means well fitted inhibition curve with a large enough effect; inconclusive means small, poorly fitted or top-dose-only effect, or another doubt; inactive means no such curve, though single readings can be large or run the other way. Potencies beside an inconclusive call are fits to weak or partial responses and may not hold up.
# Molecular target: Lysosomal alpha-glucosidase (Homo sapiens) (UniProt P10253)
# Assay: qHTS Assay for Inhibitors and Activators of Human alpha-Glucosidase Cleavage of Glycogen;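 on activity change, negative = inhibition: 0% = full enzyme reaction and -100% = no-enzyme basal signal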
# Settings: recombinant GAA, glycogen substrate, Amplex Red glucose oxidase fluorescence; activity change, negative = inhibition: at 76.4 µM (top of the series) unless noted
# Outline: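 Natural-substrate format: glycogen cleavage by 4 nM human enzyme, glucose read by Amplex Red coupling (Ex 573, Em 610 nm). Normalized to enzyme and no-enzyme controls.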
# Potency means the concentration at half of the fitted maximal effect.
Compound,Potency,"activity change, negative = inhibition"
CCCCN1CC(=O)N2[C@H](c3ccc(OC)cc3)[C@@H]3C(=O)N(CC)C(=O)[C@@H]3[C@]2(C)C1=O,"inconclusive: 50.1 µM [inhibitor, single point]",–
O=c1c2ccccc2c(/C=N/NS(=O)(=O)c2ccccc2)c(O)n1-c1ccccn1,"inconclusive: 14.1 µM [inhibitor, partial curve]",–
Cc1cc(C)cc(Nc2nc3c(S(=O)(=O)c4cccc(Cl)c4)nnn3c3ccsc23)c1,active: 39.8 µM,–
N#Cc1c(N)n[nH]c1-c1cc2c([nH]1)CCCC2,"inconclusive: 50.1 µM [inhibitor, single point]",–
O=C(NNc1cccc([N+](=O)[O-])c1)/C(=C\c1cccnc1)NC(=O)c1ccccc1,"inconclusive: 31.6 µM [inhibitor, partial curve]",–
[O-]C1=N/[N+](=C/c2ccccc2)CC1,"inconclusive: 14.1 µM [inhibitor, partial curve]",–
COC(=O)C1(Cc2ccc(O)c(CC3OC3(C)C)c2)OC(=O)C(O)=C1c1ccc(O)cc1 (stereo unspecified),"inconclusive: 39.8 µM [inhibitor, partial curve]",–
COc1ccc(Nc2c(-c3ccco3)nc3cccc(C)n23)cc1,"inconclusive: 4.47 µM [inhibitor, full curve]",–
CCc1ccc2c(c1)[C@H]1OCC[C@H]1[C@@H](c1cccs1)N2,"inconclusive: 28.2 µM [inhibitor, partial curve]",–
O=C(/C=C1\C(=O)Nc2ccccc21)/C=C1\C(=O)Nc2ccccc21,inactive,–
O=c1[nH]c2ccc(NCc3ccc(-c4ccccc4F)o3)cc2[nH]1,"inconclusive: 7.94 µM [inhibitor, partial curve]",–
Cc1onc(-c2ccccc2Cl)c1C(=O)N1CCC(C)CC1,inactive,–
Cc1ccc(C(O)(C(=O)NNc2ccccn2)c2ccc(C)cc2)cc1,active: 5.01 µM,–
O=C(O)CNc1ccccc1C(=O)O,"inconclusive: 12.6 µM [inhibitor, partial curve]",–
O=c1c(-c2ccc([N+](=O)[O-])cc2)coc2c(O)c(O)ccc12,"inconclusive: 14.1 µM [inhibitor, partial curve]",–
CC(=O)Nc1ccc(Nc2nc(-c3sc(NC(C)=O)nc3C)cs2)cc1,inactive,–
CCn1c(C)c(/C=N/Nc2nc3ccccc3s2)c2ccccc21,active: 25.1 µM,–
C/C(=N\Nc1ccc(F)cc1F)c1cccs1,"inconclusive: 25.1 µM [inhibitor, partial curve]",–
N#Cc1nc(-c2ccco2)oc1NCCN1CCOCC1,"inconclusive: 35.2 µM [inhibitor, partial curve]",–
CCCCn1c(SCC(=O)NCc2ccco2)nc2cc(S(N)(=O)=O)ccc21,inactive,–
CCc1ccc(NC(=O)C2CCCN(S(=O)(=O)c3cccc4cccnc34)C2)cc1 (stereo unspecified),inactive,–
NS(=O)(=O)c1ccc(CCNC(=O)c2ccc[nH]c2=S)cc1,"inconclusive: 31.6 µM [inhibitor, single point]",–
COc1ccc(C2N=C(c3ccccc3)C(C)(C)N2O)cc1OC (stereo unspecified),"inconclusive: 17.8 µM [inhibitor, partial curve]",–
CCC(=O)N1CCc2cc(S(=O)(=O)NC(C(=O)NC3CCCc4ccccc43)C(C)C)ccc21 (stereo unspecified),inactive,–

Compound,Potency,"activity change, negative = inhibition"
OCCNC(=S)Nc1ccc(Oc2ccccc2)cc1,"inconclusive: 50.1 µM [inhibitor, partial curve]",–
CCOC(=O)c1oc2ccccc2c1NC(=O)COc1ccc(F)cc1,–,inconclusive: 42.9% [activator]
O=C(N/N=C1\CCSC1)c1cc(Cl)ccc1O,"inconclusive: 5.01 µM [inhibitor, full curve]",–
CC(C)Nc1ccc(Nc2ccnc3cc4ccccc4cc23)cc1,"inconclusive: 39.8 µM [inhibitor, single point]",–
CC(C)c1ccc2c(c1)[C@H]1OCC[C@H]1[C@@H](c1cccs1)N2,"inconclusive: 31.6 µM [inhibitor, partial curve]",–
Cc1ccc(C(C)C)c(OCc2ccc(C(=O)N/N=C/c3ccc(O)c(O)c3)cc2)c1,"inconclusive: 11.2 µM [inhibitor, single point]",–
O=C(NNc1ccccc1)C(=O)NNS(=O)(=O)c1ccc([N+](=O)[O-])cc1,"inconclusive: 4.43 µM [inhibitor, full curve]",–
O=C(COc1cccc(C(F)(F)F)c1)N1CCN(c2ccccc2O)CC1,"inconclusive: 9.92 µM [inhibitor, partial curve]",–
CCCCN=Cc1c(C)[nH]n(-c2ccccc2)c1=S,"inconclusive: 24.9 µM [inhibitor, partial curve]",–
ON1C(c2ccccc2)CC2(O)c3nonc3CCC12 (stereo unspecified),"inconclusive: 7.88 µM [inhibitor, full curve]",–
O=C(NCC(c1cccnc1)N1CCOCC1)C(=O)Nc1ccc(Cl)cc1 (stereo unspecified),"inconclusive: 7.94 µM [inhibitor, partial curve]",–
COc1cc(C2Nc3cccc4cccc(c34)N2)ccc1O,inactive,–
Cc1cccc(-c2nc(CS(=O)CC(=O)NCc3ccc(Cl)cc3)c(C)o2)c1 (stereo unspecified),inactive,–
COc1cc(SC)ccc1C(=O)N1CCN(c2ccc(O)cc2)CC1,active: 3.98 µM,–
CCCCC(=O)NC(=S)NNC(=O)CC#N,"inconclusive: 35.2 µM [inhibitor, partial curve]",–
COc1ccc(N=Cc2ccc(CNS(=O)(=O)c3ccc(Cl)cc3)o2)cc1,"inconclusive: 39.8 µM [inhibitor, single point]",–
CCCc1cc2c(=O)c(-c3cscn3)c(C(=O)OCC)oc2cc1O,inactive,–
O=C(Nc1ccccc1)c1ccc(CSc2ccccn2)cc1,inactive,–
C/C(=N\Nc1nc2ccccc2[nH]1)c1ccc(Cl)s1,"inconclusive: 22.2 µM [inhibitor, single point]",–
N#Cc1ccc2c(c1)C[C@]1(c3ccsc3)Oc3c(c(=O)oc4ccccc34)C2O1,–,inactive: -7.55% [at 15.3 µM]
CC(=O)Oc1ccc(C(=O)O)cc1OC(C)=O,"inconclusive: 14 µM [inhibitor, partial curve]",–
Cc1cccc(NC(=O)C23CCC(C)(C2Br)C3(C)C)c1 (stereo unspecified),"inconclusive: 31.4 µM [inhibitor, single point]",–
COC1=C/C(=C/c2c(N)n3c(nc2=O)sc2cc(S(C)(=O)=O)ccc23)C=CC1=O,inactive,–
COC(=O)c1cc(S(=O)(=O)N2CCN(c3cc(Cl)ccc3C)CC2)c[nH]1,inactive,–

Compound,Potency,"activity change, negative = inhibition"
COc1cc2c(=O)c(C(=O)c3ccc(F)cc3)cn(Cc3cccc(F)c3)c2cc1OC,"inconclusive: 11.2 µM [inhibitor, single point]",–
COc1ccc(CNC(=O)COC(=O)c2ccc(Br)cc2)cc1,"inconclusive: 7.03 µM [inhibitor, single point]",–
NNC(=O)c1nnn(-c2nonc2N)c1CN1CCCC1,"inconclusive: 11.2 µM [inhibitor, single point]",–
Cc1ccc(O)c(Nc2nc3ccccc3c3nncn23)c1,"inconclusive: 5.01 µM [inhibitor, full curve, poor fit]",–
CC(C)(O)C(=O)N/N=C\c1ccc(OC/C=C/c2ccccc2)cc1,inactive,–
COc1cc(/C(C)=N/NC(=O)C(O)(c2ccccc2)c2ccccc2)ccc1O,"inconclusive: 39.8 µM [inhibitor, partial curve]",–
Cc1nc2nc(SCC(=O)NCCCN3CCCCCC3)nn2c(C)c1Cc1ccccc1,inactive,–
NS(=O)(=O)c1ccc(NNC(=O)c2cccs2)cc1,"inconclusive: 20 µM [inhibitor, partial curve]",–
CCOC(=O)CSc1nc2c(c(=O)[nH]1)C(C)(CC)Cc1ccccc1-2 (stereo unspecified),inactive,–
COc1ccc(-n2[nH]c(C)cc2=O)cc1,"inconclusive: 39.5 µM [inhibitor, single point]",–
Clc1ccc(-c2csc(N/N=C/c3ccc4c(c3)OCO4)n2)cc1,"inconclusive: 25.1 µM [inhibitor, partial curve]",–
CCN(CC)c1ccc(/C=N/Nc2nc(C)cc(C)n2)c(O)c1,"inconclusive: 14 µM [inhibitor, partial curve]",–
O=C1N/C(=C/c2ccc(N3CCOCC3)o2)C(=O)N1c1cccc(Cl)c1,"inconclusive: 35.5 µM [inhibitor, single point]",–
CC(C)(C)c1ccc(/C=N/NC(=O)c2ccccn2)cc1,"inconclusive: 44.3 µM [inhibitor, partial curve, poor fit]",–
Nc1ccccc1Nc1cc(-c2ccccc2)nn1-c1ccccc1,"inconclusive: 35.5 µM [inhibitor, single point]",–
Cc1ccc(/C=N/Nc2cccc3cccnc23)c(O)c1,"inconclusive: 17.6 µM [inhibitor, partial curve]",–
CN(C1=C(N2CCCCC2)C(=O)c2ccccc2C1=O)c1ccccc1,inactive,–
CCc1ccc(NC(=O)C(=O)N/N=C(\C)CC(=O)Nc2ccc(OC)cc2)cc1,"inconclusive: 25.1 µM [inhibitor, partial curve]",–
COc1ccccc1C1Nc2cccc3cccc(c23)N1,active: 15.7 µM,–
O=C(NC1CCCCC1)C(c1ccncc1)N(Cc1ccc2c(c1)OCO2)C(=O)C(F)(F)F (stereo unspecified),"inconclusive: 50.1 µM [inhibitor, single point]",–
CCOC(=O)c1cnc2ccc(Br)cc2c1NCC(C)O (stereo unspecified),"inconclusive: 3.52 µM [inhibitor, partial curve]",–
Cc1cc(=O)oc2c(N)c(O)ccc12,active: 10 µM,–
CC(C)(C)NC(=O)C(c1ccncc1)N(Cc1cccs1)C(=O)c1csnn1 (stereo unspecified),"inconclusive: 3.98 µM [inhibitor, full curve]",–
